From paper PMC6602471
The other results are listed elsewhere or left out. At the low end of the ranking the order means little.

The sequences below were run against T1, ETS1 (UniProt P14921) (assay: custom PBM). Conditions: custom protein-binding microarray; buffer, salt, pH and temperature not stated; high values mean tight binding; double strand, one strand shown.
T1 sequence: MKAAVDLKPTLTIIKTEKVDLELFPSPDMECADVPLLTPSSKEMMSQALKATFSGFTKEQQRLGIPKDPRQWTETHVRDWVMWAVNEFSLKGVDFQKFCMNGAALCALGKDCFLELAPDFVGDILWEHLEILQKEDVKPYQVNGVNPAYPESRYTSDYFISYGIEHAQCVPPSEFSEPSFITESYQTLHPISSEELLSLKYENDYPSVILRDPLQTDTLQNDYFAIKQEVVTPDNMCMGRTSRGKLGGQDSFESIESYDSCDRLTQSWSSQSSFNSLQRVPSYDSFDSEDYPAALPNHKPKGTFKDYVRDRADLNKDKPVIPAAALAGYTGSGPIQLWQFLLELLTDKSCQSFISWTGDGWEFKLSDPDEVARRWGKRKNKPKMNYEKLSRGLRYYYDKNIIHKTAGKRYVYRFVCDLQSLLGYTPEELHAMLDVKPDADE

Sequence	binding signal (log fluorescence intensity)
TACTGACTTATATATGCGAATGCACATGAATAGTCCGTCTTGATTCGCTTGACGCTGCTG	8.18
TAAAGGGAAGACGGTTGTGGTAGATCCGGGTATTAAGTCTTGATTCGCTTGACGCTGCTG	8.33
GGAAAAAGGCCCAGGGTAACACCTGAAGTGGGCTTAGTCTTGATTCGCTTGACGCTGCTG	8.36
CAGCATAGGACTTCATCCCTGAAGCAATTGATAACCGTCTTGATTCGCTTGACGCTGCTG	8.2
TAAAGGGAAGACGGTTGTGGTAGTTCCGGGTTTTAAGTCTTGATTCGCTTGACGCTGCTG	8.53
TCCGGCTACCAGCTCCAACCACTTCAGGCCTTGTAGGTCTTGATTCGCTTGACGCTGCTG	8.36
CACAATTTTTACAGTAATGTAGCACGTGTAACTCCTGTCTTGATTCGCTTGACGCTGCTG	8.24
GCTGCTGCGGTGCATACCCCACCGTATGTGACCCCGGTCTTGATTCGCTTGACGCTGCTG	8.23
GTGTATAGGATCCCATCCAACACACGTGTGAAAATGGTCTTGATTCGCTTGACGCTGCTG	8.27
CACAATTTTGACAGTAATGTAGCACGCGTAACTCCTGTCTTGATTCGCTTGACGCTGCTG	8.09
TACTGACTTATATATGCGAATGCACATGAAAAGACCGTCTTGATTCGCTTGACGCTGCTG	8.2
GTGTATAGGATCCCATCCAACACACGTGTTAAAATTGTCTTGATTCGCTTGACGCTGCTG	8.32
CACAACTTTTACAGTAATGTAGCACGCGTAACTCCTGTCTTGATTCGCTTGACGCTGCTG	8.25
AAAAGGGAAGACGGTTGTGGTAGTTCCGGGTATTAAGTCTTGATTCGCTTGACGCTGCTG	8.59
CGAAAGTGTCGTAAACGTCGGATATCCGGTTCTTCTGTCTTGATTCGCTTGACGCTGCTG	11.9
TACGGACTTATATATGCGAATGCACATGAATAGACCGTCTTGATTCGCTTGACGCTGCTG	8.01
CGTAAGTGTCGTAAACGTCGGATATCCGGTTCTTCTGTCTTGATTCGCTTGACGCTGCTG	12
CGGAAGTGTCGTTAACGTCGGATATCCGGTTCTTCTGTCTTGATTCGCTTGACGCTGCTG	12
CACAATTTCTACAGTAATGTAGCACGCGTAACTCCTGTCTTGATTCGCTTGACGCTGCTG	8.23
CAAAATTTTTACAGTAATGTAGCACGCGTAACTCCTGTCTTGATTCGCTTGACGCTGCTG	8.29
CAGCATAGGACTTCTTCCCTGAAGCAATAGATAACCGTCTTGATTCGCTTGACGCTGCTG	8.12

Sequence	binding signal (log fluorescence intensity)
TGTCGGGTAAGGGAATGTACATCACGTGAATGAAAAGTCTTGATTCGCTTGACGCTGCTG	8.18
CAGCATAGGACTTCTTCGCTGAAGCAATTGATAACCGTCTTGATTCGCTTGACGCTGCTG	8.29
CGGAAGTGTCGAAAACGTCGGATATCCGGTTCTTCTGTCTTGATTCGCTTGACGCTGCTG	12
CTGGGACTTGACCCAACTCTGCCAAGTGGGTCGTTTGTCTTGATTCGCTTGACGCTGCTG	8.19
TTGGGACTTGACCCAACTCTGCCACGTGGGTCGTTTGTCTTGATTCGCTTGACGCTGCTG	8.2
TTAAGGGAAGACGGTTGTGGTAGTTCCGGGTATTAAGTCTTGATTCGCTTGACGCTGCTG	8.48
GGAAATAGGCCCAGGGTAACACCGGAAGTGGGCTTAGTCTTGATTCGCTTGACGCTGCTG	12
TCCGGCTACCAGCTCCACCCACTTCTGGCCTTGTAGGTCTTGATTCGCTTGACGCTGCTG	8.26
CACAATTTTTACAGTAATGTAGCACGCTTAACTCCTGTCTTGATTCGCTTGACGCTGCTG	8.27
GTGTATAGAATCCCATCCAACACACGTGTTAAAATGGTCTTGATTCGCTTGACGCTGCTG	8.26
CGGAAGTGTCGTAAACGTCGGATATCCGGTCCTTCTGTCTTGATTCGCTTGACGCTGCTG	12.1
CTGGGACTTGACCCAACTCTTCCACGTGGGTCGTTTGTCTTGATTCGCTTGACGCTGCTG	8.23
GATTAATTTCTGCCCTGATTCGCACGTGCCATAACAGTCTTGATTCGCTTGACGCTGCTG	8.07
GCTGCTGAGGTGCATACCCCACCGGATGTGACCCCGGTCTTGATTCGCTTGACGCTGCTG	10.1
TCCGGCTACCAGCTGCACCCACTTCAGGCCTTGTAGGTCTTGATTCGCTTGACGCTGCTG	8.44
CAGCATAGGACTTCTTCCATGAAGCAATTGATAACCGTCTTGATTCGCTTGACGCTGCTG	8.31
CGGAAGTGTCGTAAACGTCGGAAATCCGGTTCTTCTGTCTTGATTCGCTTGACGCTGCTG	9.71
CACAATTTTTACAGTAATGTAGCCCGCGTAACTCCTGTCTTGATTCGCTTGACGCTGCTG	8.29
TCCCGCTACCAGCTCCACCCACTTCAGGCCTTGTAGGTCTTGATTCGCTTGACGCTGCTG	8.14
CTGGGACTTGACCCAACTCTGCCACGTGGGCCGTTTGTCTTGATTCGCTTGACGCTGCTG	8.02
